Reference: PubChem BioAssay (Tox21)
Several values for one entry are separate records, joined by “and”; a condition that tells them apart may be missing. Identical values can stand only once. This list was built around the results that the source calls inconclusive (neither active nor inactive); the mix of calls is not that of the screen. A potency beside an inconclusive call is a rough fit, not a confirmed value. A structure can be active in one record and inactive in another. Activity calls are given as the source filed them. The call rests on the fitted dose curve; in most records, active means well fitted cell-killing curve with a large enough effect in the repeat runs; inconclusive means weak or mixed curves, or effect the other way; inactive means flat fitted curve, though single readings scatter.

Experiment: qHTS RealTime-Glo MT Cell Viability Assay in HEK293 cells - 24 hour (AID 1224886); further: nearly all actives have a fitted effect of over 50% in size; on activity change, negative = cytotoxicity: top concentration of the series differs between compounds
Conditions: RealTime-Glo luminescence; series mostly up to 76.8 µM; activity change, negative = cytotoxicity: at the top concentration
Outline: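 HEK293 cells seeded with NanoLuc/prosubstrate reagent, rested 5 h at 37 C, then dosed and kept at 37 C up to 40 h. Nonlytic real-time luminescence from viable cells read at 0, 8, 16, 24, 32 and 40 h.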
On the % scale 0 is the no-effect control and ±100 the full control effect; potency means the concentration at half of the fitted maximal effect; tags describe the fitted curve by direction and shape.

Compound | Potency | activity change, negative = cytotoxicity
[Cl][Pt-2]([Cl])([Cl])[Cl] | inconclusive: 55.2 µM [rising, partial curve] | 
CC(=O)c1ccccc1 | inactive | 
C[C@H](CCC(=O)O)[C@H]1CC[C@H]2[C@@H]3C(=O)C[C@@H]4CC(=O)CC[C@]4(C)[C@H]3CC(=O)[C@]12C |  | inactive: 5.86% [at 35.3 µM]
Cc1ccc2ccc3cccc4ccc1c2c34 | inconclusive: 38.9 µM [cytotoxic, partial curve, poor fit] | 
O=C(O)Cc1cccc2ccccc12 | inactive | 
Nc1ccc(C(=O)Nc2ccccc2N)cc1 | inconclusive: 0.601 µM [rising, partial curve] | 
CC(=O)NC(Cc1ccccc1)C(=O)O (configuration not stated) |  | inactive: 5.01% [at 35.3 µM]
Nc1ccc(Cl)cc1[N+](=O)[O-] |  | inactive: 0.772%
COc1cccc([C@H](O)C2CCN(CCc3ccc(F)cc3)CC2)c1OC | inconclusive: 43.6 µM [cytotoxic, partial curve] | 
C[C@H](CCC(=O)O)[C@H]1CC[C@H]2[C@@H]3[C@H](O)C[C@@H]4C[C@H](O)CC[C@]4(C)[C@H]3CC[C@]12C | inconclusive: 49.1 µM [cytotoxic, single point] | 
C#C[C@]1(OC(C)=O)CC[C@H]2[C@@H]3CCC4=C/C(=N/O)CC[C@@H]4[C@H]3CC[C@@]21CC | active: 23.9 µM | 
Clc1ccccc1-c1nc(-c2ccncc2)no1 | inconclusive: 21.3 µM [cytotoxic, partial curve, poor fit] | 
CC(C)Oc1ccccc1O |  | inactive: 6.25%
CCOC(=O)/C=C(C)/C=C/C=C(C)/C=C/c1c(C)cc(OC)c(C)c1C | inconclusive: 10.7 µM [cytotoxic, partial curve, poor fit] | 
OC[C@H]1O[C@@H]2O[C@H]3[C@H](O)[C@@H](O)[C@@H](O[C@H]4[C@H](O)[C@@H](O)[C@@H](O[C@H]5[C@H](O)[C@@H](O)[C@@H](O[C@H]6[C@H](O)[C@@H](O)[C@@H](O[C@H]7[C@H](O)[C@@H](O)[C@@H](O[C@H]8[C@H](O)[C@@H](O)[C@@H](O[C@H]1[C@H](O)[C@H]2O)O[C@@H]8CO)O[C@@H]7CO)O[C@@H]6CO)O[C@@H]5CO)O[C@@H]4CO)O[C@@H]3CO | inactive | 
CO[C@@H]1[C@H](OC(=O)/C=C/C=C/C=C/C=C/C(=O)O)CC[C@]2(CO2)[C@H]1[C@@]1(C)O[C@@H]1CC=C(C)C | inconclusive: 38.9 µM [rising, partial curve] | 
O=CCCCC=O | active: 42.1 µM | 
Cc1c(C)c2c(c(C)c1OC(=O)c1cccnc1)CC[C@@](C)(CCC[C@H](C)CCC[C@H](C)CCCC(C)C)O2 |  | inactive: -0.287% [at 35.3 µM]
COC(=O)C1=C(C)NC(C)=C(C(=O)OCCc2ccc(N3CCN(C(c4ccccc4)c4ccccc4)CC3)cc2)C1c1cccc([N+](=O)[O-])c1 (configuration not stated) |  | inactive: -9.21% [at 35.3 µM]

Compound | Potency | activity change, negative = cytotoxicity
C=CC(=O)OCCOC(=O)CCC(=O)O | inconclusive: 34.7 µM [rising, partial curve, poor fit] | 
CCC(C)(O)CCCC(C)C (configuration not stated) | inactive | 
Cc1cc2c(cc1S(N)(=O)=O)S(=O)(=O)CCC2 |  | inactive: 4.75% [at 35.3 µM]
Nc1cc(Cl)c(O)c(Cl)c1 | inconclusive: 17.4 µM [rising, partial curve] | 
CC(C)(C)c1cc(O)c(C(C)(C)C)cc1O | active: 21.9 µM | 
Oc1cccc2cc3cccc(O)c3c(O)c12 |  | inactive: 0.573%
CC(=O)CC(C)(C)C1CCCCC1 |  | inactive: 0.638%
Cc1cc(O)c2c(c1)C(=O)c1cc(O)cc(O)c1C2=O | inconclusive: 21.4 µM [cytotoxic, partial curve] and inconclusive: 38.9 µM [cytotoxic, partial curve, poor fit] | 
Oc1ccccc1O | active: 49.6 µM and active: 24.5 µM | 
NC(=O)N1c2ccccc2C=Cc2ccccc21 | inconclusive: 38.7 µM [cytotoxic, partial curve] | 
O=C=Nc1ccc(Cc2ccc(N=C=O)cc2)cc1 | inactive | 
C=CCc1ccc(OC)c(OC)c1 | inactive | 
O=C(OCc1ccccc1)c1ccccc1O | inactive | 
Cc1ccccc1Cl | inactive | 
CC[C@@H]1C[C@H](N(Cc2cc(C(F)(F)F)cc(C(F)(F)F)c2)C(C)=O)c2cc(C(F)(F)F)ccc2N1C(=O)OC(C)C | inconclusive: 15.5 µM [cytotoxic, partial curve] | 
Cc1ccc(-c2ccccc2)cc1 | inconclusive: 34.7 µM [cytotoxic, partial curve, poor fit] | 
C1CCN(CN2CCCCC2)CC1 |  | inactive: 19.1%
C[C@@H](C1=C(CCN(C)C)Cc2ccccc21)c1ccccn1 |  | inactive: -11.8% [at 35.3 µM]
